These results are taken from the BET-seq Pho4 binding data (Le et al. 2018).

The list shows a part of the results. These are noisy estimates, calculated here from bound and input reads.

The target in this test is T1, Pho4 (S. cerevisiae) (UniProt P07270).
T1 sequence: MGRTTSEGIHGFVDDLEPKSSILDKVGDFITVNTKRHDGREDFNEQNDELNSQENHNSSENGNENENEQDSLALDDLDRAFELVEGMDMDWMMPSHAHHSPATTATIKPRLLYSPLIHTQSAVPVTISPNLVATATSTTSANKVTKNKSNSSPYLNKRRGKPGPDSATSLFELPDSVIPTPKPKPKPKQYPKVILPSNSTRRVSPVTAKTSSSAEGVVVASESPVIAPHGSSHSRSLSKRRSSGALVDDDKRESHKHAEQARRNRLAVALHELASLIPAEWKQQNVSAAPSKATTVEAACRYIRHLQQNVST
Kind of test: relative binding free energy (BET-seq); higher = weaker binding. The conditions noted are these: reference: library average.
With AGGGGCACGTGAGCAA, the “relative binding free energy” value is 0.06 kcal/mol.

For GGAGACACGTGAGCGG, the “relative binding free energy” value was found to be 0.31 kcal/mol.

With TATGGCACGTGGATAC, the “relative binding free energy” value was -0.05 kcal/mol.

Turning to GGTGCCACGTGATGGT, the “relative binding free energy” value was 0.2 kcal/mol.

In the case of ATGGGCACGTGCAGTA, the “relative binding free energy” value is -0.17 kcal/mol.

Regarding TGTAACACGTGGATGT, the “relative binding free energy” value is -0.04 kcal/mol.

CATTTCACGTGTTGAT: the “relative binding free energy” value was found to be 0.12 kcal/mol.

Take TAGTGCACGTGGGGTC: the “relative binding free energy” value was -0.18 kcal/mol.

CGATTCACGTGGGTGA: the “relative binding free energy” value came to 0.18 kcal/mol.

On to GGTGACACGTGGTCGA, for which the “relative binding free energy” value is -0.06 kcal/mol.

Take GTCTACACGTGATTTG: the “relative binding free energy” value was 0.45 kcal/mol.

With AAGTTCACGTGGCTAT, the “relative binding free energy” value was determined as 0.26 kcal/mol.

CGAGTCACGTGGTGTC: the “relative binding free energy” value turned out to be 0.11 kcal/mol.

Regarding TTTGTCACGTGGCGGT, the “relative binding free energy” value worked out at 0.12 kcal/mol.

For ATTTTCACGTGGCGTG, the “relative binding free energy” value stood at 0.14 kcal/mol.

As to CGTCGCACGTGTTGTT, the “relative binding free energy” value was -0.07 kcal/mol.

ACTTGCACGTGATGTG: the “relative binding free energy” value is 0.12 kcal/mol.

For the sequence CTATTCACGTGAGTTT, the “relative binding free energy” value worked out at 0.34 kcal/mol.

Turning to TACGACACGTGGGCGG, the “relative binding free energy” value is -0.09 kcal/mol.

As for ATAGACACGTGGGAGT, the “relative binding free energy” value was -0.08 kcal/mol.

Regarding GGCAGCACGTGGTAGA, the “relative binding free energy” value is -0.09 kcal/mol.

As for GGTTTCACGTGTGGCA, the “relative binding free energy” value came to 0.24 kcal/mol.

For the sequence GTGGACACGTGGATAT, the “relative binding free energy” value was 0.14 kcal/mol.

With ATCCGCACGTGGTGGG, the “relative binding free energy” value is -0.13 kcal/mol.

In the case of TGCTTCACGTGTTATG, the “relative binding free energy” value is 0.2 kcal/mol.

As to TTTATCACGTGTTCCT, the “relative binding free energy” value turned out to be 0.31 kcal/mol.

GGCTGCACGTGCGGGC: the “relative binding free energy” value was determined as 0 kcal/mol.

Turning to GGGCTCACGTGGTGTA, the “relative binding free energy” value was determined as 0.17 kcal/mol.

For GAGGGCACGTGGGGGA, the “relative binding free energy” value is -0.16 kcal/mol.

With ACGTGCACGTGGCAGG, the “relative binding free energy” value is -0.22 kcal/mol.

On to TGGAACACGTGTAGTG, for which the “relative binding free energy” value turned out to be 0.04 kcal/mol.

Take GTGGGCACGTGGGCGC: the “relative binding free energy” value is -0.15 kcal/mol.

On to TGTATCACGTGTTGGG, for which the “relative binding free energy” value came to 0.18 kcal/mol.

On to TTTGTCACGTGCGGGC, for which the “relative binding free energy” value stood at 0.17 kcal/mol.

For the sequence GAAATCACGTGATGGG, the “relative binding free energy” value is 0.25 kcal/mol.

On to CGTTGCACGTGAACGG, for which the “relative binding free energy” value came out at 0.23 kcal/mol.

In the case of TTAATCACGTGAGAGG, the “relative binding free energy” value is 0.29 kcal/mol.

Turning to GGTTCCACGTGGGTGT, the “relative binding free energy” value was -0.1 kcal/mol.

For TTTTGCACGTGTCGGT, the “relative binding free energy” value is -0.08 kcal/mol.

On to TTGTGCACGTGGACTT, for which the “relative binding free energy” value was 0.03 kcal/mol.

Take GGGAACACGTGGAGGT: the “relative binding free energy” value was found to be 0.06 kcal/mol.

In the case of TGCGTCACGTGGTAAA, the “relative binding free energy” value amounted to 0.07 kcal/mol.

Turning to AGGGGCACGTGGCAAT, the “relative binding free energy” value was -0.24 kcal/mol.

On to GGGCGCACGTGATAGG, for which the “relative binding free energy” value is 0.04 kcal/mol.

As to GCGTGCACGTGATTGG, the “relative binding free energy” value was determined as 0.05 kcal/mol.

As for TTGCACACGTGAGTTT, the “relative binding free energy” value came to 0.22 kcal/mol.

Take AGGGGCACGTGAGAGC: the “relative binding free energy” value stood at 0.07 kcal/mol.

As to GGGCTCACGTGTTAAG, the “relative binding free energy” value was 0.26 kcal/mol.

For the sequence ATAAGCACGTGTGATT, the “relative binding free energy” value was -0.09 kcal/mol.

As for GGCAGCACGTGGTACG, the “relative binding free energy” value is -0.1 kcal/mol.

In the case of TAGGGCACGTGAGCGG, the “relative binding free energy” value is 0.12 kcal/mol.

In the case of GAGTGCACGTGTTTGC, the “relative binding free energy” value worked out at 0.03 kcal/mol.

TATAACACGTGATTGT: the “relative binding free energy” value is 0.15 kcal/mol.

In the case of GTGTTCACGTGTTGAG, the “relative binding free energy” value came to 0.22 kcal/mol.

Turning to CAGATCACGTGGTAGG, the “relative binding free energy” value came out at 0.01 kcal/mol.

For GCTTTCACGTGGTCGG, the “relative binding free energy” value was determined as 0.15 kcal/mol.

With GGTGGCACGTGAGGTA, the “relative binding free energy” value came out at 0.18 kcal/mol.

For the sequence AATTTCACGTGTGGTA, the “relative binding free energy” value came out at 0.25 kcal/mol.

As to TACGTCACGTGGTGGG, the “relative binding free energy” value is 0.07 kcal/mol.

In the case of GTGTGCACGTGAGACT, the “relative binding free energy” value is 0.09 kcal/mol.

Consider GTTGGCACGTGGCTCA, for which the “relative binding free energy” value was -0.11 kcal/mol.

As for ATGTACACGTGGGGCG, the “relative binding free energy” value is -0.12 kcal/mol.

Take TGAGGCACGTGGTATC: the “relative binding free energy” value is -0.2 kcal/mol.

As to GGTCGCACGTGTGTAA, the “relative binding free energy” value was 0.03 kcal/mol.

As to AGTTTCACGTGAAGAA, the “relative binding free energy” value was 0.26 kcal/mol.

Take TGTAACACGTGGGCTA: the “relative binding free energy” value was -0.18 kcal/mol.

Regarding AATAGCACGTGTACGG, the “relative binding free energy” value stood at 0 kcal/mol.

Regarding TTGTGCACGTGGTCCG, the “relative binding free energy” value is -0.19 kcal/mol.

As to TGAAGCACGTGAGTGT, the “relative binding free energy” value worked out at 0.2 kcal/mol.

For the sequence GATTACACGTGTTTGA, the “relative binding free energy” value came to 0.25 kcal/mol.

In the case of TGGCGCACGTGGGGTG, the “relative binding free energy” value is -0.16 kcal/mol.

Consider TTGTACACGTGAAATG, for which the “relative binding free energy” value stood at 0.2 kcal/mol.

Consider TGTATCACGTGATGTC, for which the “relative binding free energy” value was found to be 0.28 kcal/mol.

GAAGGCACGTGTAGTT: the “relative binding free energy” value is 0.01 kcal/mol.

As to TTTTACACGTGAGGGC, the “relative binding free energy” value was 0.35 kcal/mol.

For GGGTTCACGTGGTGCA, the “relative binding free energy” value came out at 0.27 kcal/mol.

Turning to GTGCGCACGTGTGATA, the “relative binding free energy” value amounted to 0.09 kcal/mol.

TGTTCCACGTGCTGGT: the “relative binding free energy” value was -0.04 kcal/mol.

For AATGACACGTGTTATT, the “relative binding free energy” value stood at 0.13 kcal/mol.

With ACAGTCACGTGTTGGG, the “relative binding free energy” value came to 0.11 kcal/mol.

As to GTTGGCACGTGATGTC, the “relative binding free energy” value is 0.12 kcal/mol.

On to TAAATCACGTGATTGG, for which the “relative binding free energy” value was 0.33 kcal/mol.

In the case of ACATGCACGTGTGAGT, the “relative binding free energy” value stood at 0.05 kcal/mol.

For the sequence GTAGACACGTGTGTCG, the “relative binding free energy” value is 0.06 kcal/mol.

GGTCTCACGTGAGTGC: the “relative binding free energy” value is 0.38 kcal/mol.

TTTGTCACGTGCTTTT: the “relative binding free energy” value was 0.08 kcal/mol.

Take AGCCGCACGTGTGGTT: the “relative binding free energy” value was -0.03 kcal/mol.

For AAAAACACGTGGGTTG, the “relative binding free energy” value was -0.04 kcal/mol.

As for GGTAGCACGTGACGGA, the “relative binding free energy” value was 0.24 kcal/mol.

As to CCTGGCACGTGGGAGG, the “relative binding free energy” value is -0.18 kcal/mol.

With TTATGCACGTGAGGTG, the “relative binding free energy” value came to 0.11 kcal/mol.

Take GTGTGCACGTGCTGTG: the “relative binding free energy” value worked out at 0 kcal/mol.

On to ATGTTCACGTGTATGG, for which the “relative binding free energy” value came to 0.35 kcal/mol.

Consider TGTGTCACGTGCTTGC, for which the “relative binding free energy” value was -0.06 kcal/mol.

GCTTGCACGTGGTTGT: the “relative binding free energy” value is -0.05 kcal/mol.

CGATTCACGTGTCGGG: the “relative binding free energy” value was found to be 0.27 kcal/mol.

Take TAAGTCACGTGGGCAG: the “relative binding free energy” value is -0.07 kcal/mol.

With GAAGGCACGTGTTGGA, the “relative binding free energy” value was -0.05 kcal/mol.

In the case of TTCAGCACGTGTGTCT, the “relative binding free energy” value turned out to be 0.02 kcal/mol.

Regarding GTCGCCACGTGGGGGC, the “relative binding free energy” value was -0.1 kcal/mol.

Consider TAGGGCACGTGCGGTG, for which the “relative binding free energy” value was -0.28 kcal/mol.

Take GGGGCCACGTGGGGGA: the “relative binding free energy” value is -0.14 kcal/mol.

Consider CTGGTCACGTGAAGCG, for which the “relative binding free energy” value came to 0.19 kcal/mol.

As for TACTTCACGTGTTGGT, the “relative binding free energy” value is 0.33 kcal/mol.

Take GTAGTCACGTGCGGTC: the “relative binding free energy” value is 0.15 kcal/mol.

As to CTGGGCACGTGAAATT, the “relative binding free energy” value came to 0.22 kcal/mol.

Take TTGATCACGTGACTGT: the “relative binding free energy” value is 0.31 kcal/mol.

As to AGGAACACGTGTGTGA, the “relative binding free energy” value stood at 0.08 kcal/mol.

In the case of TGAAGCACGTGCTGTT, the “relative binding free energy” value was -0.26 kcal/mol.

AGAAGCACGTGAGGTC: the “relative binding free energy” value worked out at 0.25 kcal/mol.

As to TAAGGCACGTGGTGGT, the “relative binding free energy” value was -0.07 kcal/mol.

For AAAGTCACGTGTGGGG, the “relative binding free energy” value is 0.14 kcal/mol.

Consider GTTGCCACGTGTGAGG, for which the “relative binding free energy” value is -0.09 kcal/mol.

As to TGTAGCACGTGGTATG, the “relative binding free energy” value was -0.11 kcal/mol.

For the sequence TAGTTCACGTGTGCGC, the “relative binding free energy” value was 0.34 kcal/mol.
